Data from article PMC4336329 (PLoS ONE, 2015).
Among all 310,000 compounds or so, about 2,200 (0.71%) showed an effect of 50% or more. The effect is printed as a negative number. This is one part of the list.

The compounds below were run against human ether-à-go-go-related gene (hERG) potassium channel (human, UniProt Q12809) (assay: primary screen, population patch clamp on CHO cells stably expressing hERG).
Chain of human ether-à-go-go-related gene (hERG) potassium channel (Q12809 whole entry, looked up): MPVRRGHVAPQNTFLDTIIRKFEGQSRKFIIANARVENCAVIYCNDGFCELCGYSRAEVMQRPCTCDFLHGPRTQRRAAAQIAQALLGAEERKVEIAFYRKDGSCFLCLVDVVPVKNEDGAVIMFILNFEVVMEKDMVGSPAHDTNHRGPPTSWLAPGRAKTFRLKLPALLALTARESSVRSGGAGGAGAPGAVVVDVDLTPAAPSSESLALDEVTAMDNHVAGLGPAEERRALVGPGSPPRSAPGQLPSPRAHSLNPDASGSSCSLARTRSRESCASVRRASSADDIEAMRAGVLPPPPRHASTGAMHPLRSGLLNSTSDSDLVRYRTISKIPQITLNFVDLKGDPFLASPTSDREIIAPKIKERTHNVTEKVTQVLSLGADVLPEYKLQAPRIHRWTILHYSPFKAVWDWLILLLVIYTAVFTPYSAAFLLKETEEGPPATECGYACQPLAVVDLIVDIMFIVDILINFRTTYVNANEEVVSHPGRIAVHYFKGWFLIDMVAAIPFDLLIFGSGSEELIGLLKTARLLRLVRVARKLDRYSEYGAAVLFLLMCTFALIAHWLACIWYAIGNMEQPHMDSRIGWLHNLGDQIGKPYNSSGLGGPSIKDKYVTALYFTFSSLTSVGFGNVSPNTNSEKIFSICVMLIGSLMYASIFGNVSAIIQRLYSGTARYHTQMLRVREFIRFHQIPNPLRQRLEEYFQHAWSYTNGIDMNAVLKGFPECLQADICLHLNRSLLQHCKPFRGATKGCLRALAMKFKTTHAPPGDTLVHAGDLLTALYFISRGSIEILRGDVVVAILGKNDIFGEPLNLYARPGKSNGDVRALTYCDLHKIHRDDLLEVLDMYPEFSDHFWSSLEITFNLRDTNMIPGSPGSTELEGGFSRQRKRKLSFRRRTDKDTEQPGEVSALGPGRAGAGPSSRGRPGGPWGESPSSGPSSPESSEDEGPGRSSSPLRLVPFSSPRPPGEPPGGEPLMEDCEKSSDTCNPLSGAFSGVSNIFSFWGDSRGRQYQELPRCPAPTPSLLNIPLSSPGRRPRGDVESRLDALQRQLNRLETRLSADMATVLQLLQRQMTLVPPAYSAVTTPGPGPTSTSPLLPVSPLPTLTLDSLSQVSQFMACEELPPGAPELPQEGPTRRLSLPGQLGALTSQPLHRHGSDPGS

Row | Compound | hERG current change (%, negative = inhibition) at 1uM
1 | CCn1c(SCC(=O)NC2CC2)nnc1-c1cccs1 | 3.36%
2 | COc1cccc(N=Nc2c(=O)[nH]n3c(=O)cc(C)[nH]c23)c1 | 21.2%
3 | COc1ccc(N2CC(C(=O)Nc3nnc(SCC(=O)N4CCCC4)s3)CC2=O)cc1 (stereo not drawn) | 18%
4 | CCOC(=O)c1cc2c(=O)n3ccccc3nc2n(C(C)C)c1=NC(=O)c1ccco1 | -23.7%
5 | Clc1ccccc1-c1nnc2n1-c1ccccc1SC2 | 8.47%
6 | CCCC(=O)Nc1ccc(Br)c(Cl)c1 | 11.3%
7 | O=C(O)CCn1cc(/C=C\C(=O)c2ccc(Cl)cc2)c(-c2cccc(Br)c2)n1 | 13.4%
8 | COc1ccc(OCc2nn3c(-c4ccccn4)nnc3s2)cc1 | -7.56%
9 | CCOc1ccc(-n2c(C)cc(/C=N\NC(=O)CC(=O)NC3CCCCC3)c2C)cc1 | 7.94%
10 | COc1ccc(OC)c(-c2csc(NC(=O)CN3C(=O)NC4(CCCC4)C3=O)n2)c1 | 2.35%
11 | CCc1ccc(NC(=O)CN(c2cc(C)cc(C)c2)S(=O)(=O)c2c(C)[nH]c(=O)[nH]c2=O)cc1 | 5.29%
12 | Cc1cccc(N2CCN(CC(O)COc3ccc(Cl)cc3)CC2)c1 (stereo not drawn) | -9.3%
13 | O=C(CCSCCc1ccccn1)Nc1cc(F)ccc1F | 6.43%
14 | N#Cc1cccc(C(=O)N(CCc2ccccc2)Cc2cccs2)c1 | -43.9%
15 | Cc1ccc(CN2C3CCCC2CC(NC(=O)Nc2cccc(F)c2)C3)cc1 (stereo not drawn) | -85.2%
16 | O=C(Cc1ccccc1)NC(Nc1ccccc1)C(Cl)(Cl)Cl (stereo not drawn) | 8.36%
17 | COc1ccc(N2CCN(C(CNC(=O)C(C)C)c3ccc4c(c3)OCO4)CC2)cc1 (stereo not drawn) | 9.17%
18 | COc1cccc(N2CCN(c3ccc(N4C(=O)CCC4=O)cc3[N+](=O)[O-])CC2)c1 | 13.4%
19 | COc1ccccc1CN1CCNC(=O)C1CC(=O)NCc1c(C)n[nH]c1C (stereo not drawn) | 11.4%
20 | Cc1cc(N2CCN(C3CCCCC3)CC2)n2nc(C)nc2n1 | -14.2%
21 | Cc1cc(NS(=O)(=O)c2ccc(NC(=O)c3cnc(Cl)c(Cl)c3)cc2)nc(C)n1 | 4.39%
22 | S=C(Nc1cccc(Cl)c1)N1CCN(c2ccccn2)CC1 | 17.4%
23 | CN(C)CCCNS(=O)(=O)c1ccc(N2CCN(Cc3ccc4c(c3)OCO4)CC2)c([N+](=O)[O-])c1 | 14.4%
24 | CNC(=O)Oc1ccc(N(C)C)cc1C(C)C | -0.707%
